Out of some 310,000 compounds screened, about 14,000 (4.5%) showed an effect of 50% or more. The effect is printed as a negative number. This is one part of the list.
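Note: peak tail current of the secondary pulse compared with the same well before compound.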

Chain of human ether-à-go-go-related gene (hERG) potassium channel (Q12809 whole entry, looked up): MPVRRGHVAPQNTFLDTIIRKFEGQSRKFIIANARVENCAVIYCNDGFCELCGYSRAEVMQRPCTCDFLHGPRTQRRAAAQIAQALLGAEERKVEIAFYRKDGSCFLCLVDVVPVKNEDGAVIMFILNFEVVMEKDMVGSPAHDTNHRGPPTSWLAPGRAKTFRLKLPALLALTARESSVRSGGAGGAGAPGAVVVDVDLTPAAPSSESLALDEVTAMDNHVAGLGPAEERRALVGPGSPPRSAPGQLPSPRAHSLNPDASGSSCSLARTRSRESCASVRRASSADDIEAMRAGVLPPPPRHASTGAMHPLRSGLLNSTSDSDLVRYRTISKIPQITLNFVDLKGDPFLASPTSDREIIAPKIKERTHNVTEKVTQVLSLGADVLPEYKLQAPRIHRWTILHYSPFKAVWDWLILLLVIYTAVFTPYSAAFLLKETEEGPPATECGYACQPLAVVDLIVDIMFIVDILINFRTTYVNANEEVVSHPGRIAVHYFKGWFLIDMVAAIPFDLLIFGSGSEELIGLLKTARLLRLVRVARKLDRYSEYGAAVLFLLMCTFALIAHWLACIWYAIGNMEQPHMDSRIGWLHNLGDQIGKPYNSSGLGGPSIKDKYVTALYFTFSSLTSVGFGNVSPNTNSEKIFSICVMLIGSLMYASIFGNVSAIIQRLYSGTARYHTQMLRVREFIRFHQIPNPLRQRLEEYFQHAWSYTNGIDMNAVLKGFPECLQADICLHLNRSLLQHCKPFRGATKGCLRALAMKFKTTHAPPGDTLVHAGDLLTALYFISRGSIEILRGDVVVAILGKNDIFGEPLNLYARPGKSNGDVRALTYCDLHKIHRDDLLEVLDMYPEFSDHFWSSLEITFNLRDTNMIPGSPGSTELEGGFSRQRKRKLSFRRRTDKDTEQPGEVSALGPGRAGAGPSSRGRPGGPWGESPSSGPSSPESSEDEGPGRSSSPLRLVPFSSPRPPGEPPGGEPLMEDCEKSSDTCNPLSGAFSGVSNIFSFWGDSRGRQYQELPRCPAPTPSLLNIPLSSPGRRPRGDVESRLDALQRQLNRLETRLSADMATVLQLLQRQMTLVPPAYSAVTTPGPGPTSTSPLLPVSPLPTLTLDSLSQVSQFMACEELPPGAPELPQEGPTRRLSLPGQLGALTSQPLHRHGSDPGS

This assay addresses human ether-à-go-go-related gene (hERG) potassium channel (human, UniProt Q12809). Nature of the assay: primary screen, population patch clamp on CHO cells stably expressing hERG.
With `Cc1onc(-c2c(Cl)cccc2Cl)c1COC(=O)c1ccc(Cl)cc1[N+](=O)[O-]`, the “hERG current change (%, negative = inhibition) at 10uM” value came to 16.1%.
For the compound `CC(C)c1ccc(NC(=O)C2CC(=O)N=C(N)S2)cc1` (stereo not shown), the “hERG current change (%, negative = inhibition) at 10uM” value was determined as 4.8%.
For `CNC(=O)c1cc2cccc(OC)c2oc1=O`, the “hERG current change (%, negative = inhibition) at 10uM” value turned out to be 10.7%.
Take `CC(NC(=O)Cc1ccccc1F)c1ccc(F)cc1` (stereo not shown): the “hERG current change (%, negative = inhibition) at 10uM” value worked out at 6.9%.
The result for `CCCc1nc2c(nnn2Cc2ccccc2F)c(=O)[nH]1` reads 4.74%; that for `COc1ccc(N2CCN(C(=O)CSc3ncnc4c3cnn4-c3ccccc3C)CC2)cc1`, 10.8%; that for `CCOc1ccc(NS(=O)(=O)c2ccc(C(=O)NCC(C)(C)N3CCOCC3)cc2)cc1`, -10.3%.
Consider `CC(C)CN1CCC(=O)N(CCSc2ccc(Br)cc2)CC1`, for which the “hERG current change (%, negative = inhibition) at 10uM” value is -61.3%.
Turning to `Cc1ccc(C)c(C(=O)COC(=O)CNS(=O)(=O)c2ccccc2)c1`, the “hERG current change (%, negative = inhibition) at 10uM” value is recorded as 6.9%.
Turning to `COc1ccccc1CN(CC(=O)NCc1ccco1)C(=O)CNS(=O)(=O)c1ccc(C)cc1`, the “hERG current change (%, negative = inhibition) at 10uM” value is reported as -13.9%.
Regarding `CN(CCc1ccccc1)Cc1c[nH]c2ccccc12.O=C(O)C(=O)O`, the “hERG current change (%, negative = inhibition) at 10uM” value was -56.7%.
Consider `N#C/C(=C\c1ccc(N2CCOCC2)o1)C(=O)Nc1ccc(O)cc1`, for which the “hERG current change (%, negative = inhibition) at 10uM” value is given as -1.18%.
In the case of `Cc1cc2oc(C(=O)NCCc3ccc(S(N)(=O)=O)cc3)c(C)c2cc1C`, the “hERG current change (%, negative = inhibition) at 10uM” value was found to be 29.1%.
Take `Cc1nc(NC(=S)Nc2ccccc2)sc1C`: the “hERG current change (%, negative = inhibition) at 10uM” value is on record as 11.9%.
As for `COc1ccccc1N(C(=O)c1ccco1)C(C(=O)NC1CCCC1)c1cccs1` (stereo not shown), the “hERG current change (%, negative = inhibition) at 10uM” value came to 1.33%.
Turning to `O=C(NCCC1=CCCCC1)C1CC(=O)N(C2CCCCCC2)C1` (stereo not shown), the “hERG current change (%, negative = inhibition) at 10uM” value is on record as 6.77%.
`CCCNC(=O)N1CCC(n2nccc2NC(=O)CCOc2ccccc2)CC1`: the “hERG current change (%, negative = inhibition) at 10uM” value is on record as 6.12%.
As for `COc1ccccc1OCCNC(=O)c1c(-c2ccccc2Cl)noc1C`, the “hERG current change (%, negative = inhibition) at 10uM” value is given as 8.43%.
For `O=C(CN(Cc1ccccc1)S(=O)(=O)c1ccc2c(c1)OCCO2)Nc1ccc2c(c1)OCCO2`, the “hERG current change (%, negative = inhibition) at 10uM” value was -7.83%.
With `COc1ccc([C@@H]2[C@@H]3C(=O)N(C(C)(C)C)C(=O)[C@@H]3[C@]3(C)C(=O)N(c4ccc(C)cc4)C(=O)N23)cc1`, the “hERG current change (%, negative = inhibition) at 10uM” value was -13.9%.
The result for `CC(C)(C)N1C(=O)c2ccc(C(=O)Nc3ccc(O)cc3)cc2C1=O` reads 2.05%; that for `CCOCCCNC(=O)CCCn1nc(C)n2c(cc3sccc32)c1=O`, -9.92%.
As to `CCOC(=O)c1nnn(-c2nonc2N)c1COc1ccc(F)cc1`, the “hERG current change (%, negative = inhibition) at 10uM” value is listed as -36.6%.
The result for `CC1(C)OC(=O)C(=CNc2ccccn2)C(=O)O1` reads -18.8%.
On to `CC(C)(C)c1nc2scc(-c3ccc(Br)cc3)c2c(=O)o1`, for which the “hERG current change (%, negative = inhibition) at 10uM” value was 7.26%.
With `CC(C)(C)C(=O)Nc1ccc(C(=O)N/N=C/c2ccccc2OC(=O)c2ccc(Cl)cc2Cl)cc1`, the “hERG current change (%, negative = inhibition) at 10uM” value stood at 3.58%.
Regarding `Cn1cc(S(=O)(=O)Nc2ccc(OC(F)(F)F)cc2)c(=O)n(C)c1=O`, the “hERG current change (%, negative = inhibition) at 10uM” value is given as 15.2%.
Regarding `COc1cc(CC(=O)NC(c2ccccc2)c2ccccc2)cc(OC)c1OC`, the “hERG current change (%, negative = inhibition) at 10uM” value is reported as 11.1%.
Regarding `O=C(CNS(=O)(=O)c1ccc2c(c1)OCCCO2)N1CCN(Cc2ccccc2)CC1`, the “hERG current change (%, negative = inhibition) at 10uM” value was 2.63%.
The result for `CC(C)CC(CO)N1CCN(C(=O)c2ccc(Cl)cc2)CCC1=O` (stereo not shown) reads -12.5%.
`C/C(=C\c1ccccc1)C(=O)Nc1ccc(S(=O)(=O)Nc2ncccn2)cc1`: the “hERG current change (%, negative = inhibition) at 10uM” value was 22.8%.
Take `O=C(O)C1CC=CCC1C(=O)NCCc1ccccc1` (stereo not shown): the “hERG current change (%, negative = inhibition) at 10uM” value turned out to be 13%.
For `N=c1oc2ccc3ccccc3c2cc1-c1nnc2n1CCCCC2`, the “hERG current change (%, negative = inhibition) at 10uM” value was -6.3%.
Regarding `COC(=O)C1C(=O)/C(=C/N(C)C)C(=O)CC1(C)C` (stereo not shown), the “hERG current change (%, negative = inhibition) at 10uM” value was determined as 13.8%.
The result for `CN1CCN(C(c2ccc(Br)cc2)c2cc(Cl)c3cccnc3c2O)CC1` (stereo not shown) reads -4.18%; that for `CCOC(=O)C1=CN(Cc2ccc(OC)cc2)C=C(C(=O)OCC)C1c1cccs1`, 2.56%; that for `CC1(C)CC(=O)C(C(c2cccnc2)C2C(=O)CC(C)(C)CC2=O)C(=O)C1`, 0.265%.
Take `Cc1c(NC(=O)c2cccs2)cccc1NC(=O)c1cccs1`: the “hERG current change (%, negative = inhibition) at 10uM” value was 9.71%.
Turning to `Cc1ccc(C(=O)Nc2ccc(C)c(S(=O)(=O)N(C)C)c2)s1`, the “hERG current change (%, negative = inhibition) at 10uM” value amounted to 5.28%.
Turning to `CCN(CC)S(=O)(=O)c1ccc(N2CCN(C)CC2)c(NC(=O)CSCC(=O)Nc2cccc(C)c2)c1`, the “hERG current change (%, negative = inhibition) at 10uM” value was -13%.
Regarding `CCN1CCN(c2ccc(S(=O)(=O)N3CCOCC3)cc2NC(=O)/C=C/c2ccc(OC)c(OC)c2)CC1`, the “hERG current change (%, negative = inhibition) at 10uM” value was 10.4%.
For the compound `COc1cc(OC)cc(C(=O)NCC(=O)NCCN2C(=O)S/C(=C\c3ccccc3Cl)C2=O)c1`, the “hERG current change (%, negative = inhibition) at 10uM” value was -12.1%.
The result for `CC1CN(Cc2ccccc2)c2nc3c(c(=O)n(C)c(=O)n3C)n2C1` (stereo not shown) reads -36.1%; that for `CN(C)c1ccc(/C=N/NC(=O)CN(c2ccccc2Cl)S(C)(=O)=O)cc1Br`, -7.83%; that for `O=C(Nc1cccnc1)c1cc(-c2ccccc2O)on1`, 11%.
Take `CCc1ccc(OCC(=O)NNC(=O)c2cc(S(=O)(=O)N3CCOCC3)ccc2N2CCCC2)cc1`: the “hERG current change (%, negative = inhibition) at 10uM” value is -48.2%.
For `CCOc1ccc(-n2c([S-])c(C(=O)Nc3ccc(S(=O)(=O)N4CCOCC4)cc3)[n+]3cc(C(N)=O)ccc23)cc1`, the “hERG current change (%, negative = inhibition) at 10uM” value came out at 0.433%.
As for `CCOc1ccc(S(=O)(=O)NCc2ccccc2)cc1C(N)=O`, the “hERG current change (%, negative = inhibition) at 10uM” value worked out at 18.9%.
On to `Cc1cccc(C)c1NC(=O)CS(=O)CC(=O)Nc1ccc(F)cc1F` (stereo not shown), for which the “hERG current change (%, negative = inhibition) at 10uM” value is reported as 15.6%.
Turning to `O=C(c1cc(N2C(=O)C3C4CCC(C4)C3C2=O)ccc1Cl)N1CCN(c2ccccc2)CC1` (stereo not shown), the “hERG current change (%, negative = inhibition) at 10uM” value is on record as -8.33%.
Take `Cc1cccc(NC(=S)N2CCC(C(=O)c3ccc(F)cc3)CC2)c1C`: the “hERG current change (%, negative = inhibition) at 10uM” value is -3.2%.
The result for `CCOC(=O)C1C(=O)N(C(=O)c2cncc(Br)c2)CC1c1ccccc1` (stereo not shown) reads -2.41%.
For `COc1ccc(-c2nc(C#N)c(NCC3CCCO3)o2)cc1OC` (stereo not shown), the “hERG current change (%, negative = inhibition) at 10uM” value stood at 6.28%.
Turning to `CSCCC(NC(=O)c1ccccc1)C(=O)NCC(C)(C)N1CCOCC1` (stereo not shown), the “hERG current change (%, negative = inhibition) at 10uM” value is given as -2.85%.
The result for `O=C(c1ccco1)N1CCN(C(=O)c2ccc(CS(=O)c3cccc(Cl)c3)o2)CC1` (stereo not shown) reads -14%; that for `COCCn1c(=S)[nH]c2cc(C(=O)N3CCc4ccccc4C3)ccc2c1=O`, 6.97%.
For the compound `CCCc1nc2oc3c(NCCN(C)C)ncnc3c2c2c1CCCC2`, the “hERG current change (%, negative = inhibition) at 10uM” value was -32.8%.
Consider `CN(NC(=O)c1ccc(Cl)cc1)c1nc(-c2ccccc2)nnc1C(F)(F)F`, for which the “hERG current change (%, negative = inhibition) at 10uM” value was 6.67%.
As to `Cc1c(C(=O)N2CCCCC2)oc2ccc(S(=O)(=O)N3CC(C)CC(C)C3)cc12` (stereo not shown), the “hERG current change (%, negative = inhibition) at 10uM” value is recorded as 0.372%.
Consider `CCOc1ccccc1N(C)S(=O)(=O)c1ccc2[nH]cc(C(=O)N(CCOC)CCOC)c(=O)c2c1`, for which the “hERG current change (%, negative = inhibition) at 10uM” value was determined as 9.78%.
Regarding `O=C(COC(=O)c1cccc(O)c1)Nc1ccc(S(=O)(=O)N2CCOCC2)cc1`, the “hERG current change (%, negative = inhibition) at 10uM” value is on record as 6.31%.
As to `CCOc1ccc(-n2c(SCC(=O)Nc3ccc(CC)cc3)nc3n[nH]c(C)c3c2=N)cc1`, the “hERG current change (%, negative = inhibition) at 10uM” value came to 18.6%.
`CCc1nc(SCc2ccc(OCC(C)C)cc2)n[nH]1`: the “hERG current change (%, negative = inhibition) at 10uM” value is 1.32%.
Regarding `O=C(Cc1ccccc1)NNC(=O)C1CCN(c2ncccn2)CC1`, the “hERG current change (%, negative = inhibition) at 10uM” value is given as 8.45%.
With `Cl.O=C(OCCN1CCCCC1)c1cccc(F)c1`, the “hERG current change (%, negative = inhibition) at 10uM” value is -4.33%.
With `Cn1c(=O)c(C(=O)CN2CCCc3ccccc32)c(N)n(Cc2ccccc2)c1=O`, the “hERG current change (%, negative = inhibition) at 10uM” value was 6.32%.
The result for `O=C(NCCCl)Nc1ccc(Cl)c([N+](=O)[O-])c1` reads 4.15%.
In the case of `C#Cc1ccc([C@@H]2C=C(C(=O)O)O[C@H](OCC)[C@H]2CCCO)cc1`, the “hERG current change (%, negative = inhibition) at 10uM” value came to 18.4%.
The result for `CNc1ccccc1NC(=O)C1CCCN1C(=O)OCc1ccccc1` (stereo not shown) reads 4.72%.
The result for `CN(C(=O)Nc1ccc(Cl)cc1)c1c2c(nn1C)CCCC2` reads -8.17%; that for `CCCCC(=O)Nc1ccc(C(=O)Nc2ccc(S(=O)(=O)Nc3nccc(C)n3)cc2)cc1`, 9.11%; that for `Nc1ccccc1C(O)(Cc1ccccc1)c1ccccc1` (stereo not shown), 12.2%.
In the case of `CCOc1ccc(S(=O)(=O)c2c[nH]c3ccccc3c2=O)cc1`, the “hERG current change (%, negative = inhibition) at 10uM” value came out at 13.7%.
`COC(=O)c1cc(NC(=O)C2(S(=O)(=O)c3ccc(Cl)cc3)CC2)cc(C(=O)OC)c1`: the “hERG current change (%, negative = inhibition) at 10uM” value was -36.8%.
Turning to `Cc1ccccc1CSc1nnc(NC(=O)C2COc3ccccc3O2)s1` (stereo not shown), the “hERG current change (%, negative = inhibition) at 10uM” value was -6.38%.
With `O=C(NCc1ccccc1)c1ccc(COCC(F)(F)F)o1`, the “hERG current change (%, negative = inhibition) at 10uM” value is given as -5.64%.
`C=CCNC(=O)CSc1cc([N+](=O)[O-])cc(S(=O)(=O)Cc2ccccc2)c1`: the “hERG current change (%, negative = inhibition) at 10uM” value is -23.9%.
On to `COc1ccccc1N1CCN(C(=O)c2cc(-c3ccc(Cl)cc3)on2)CC1`, for which the “hERG current change (%, negative = inhibition) at 10uM” value is reported as 8.31%.
In the case of `COc1cccc(/C=N/NC(=O)CNC(=O)c2ccco2)c1O`, the “hERG current change (%, negative = inhibition) at 10uM” value was determined as 12.2%.
The result for `CC1Oc2ccccc2N(CC(=O)NC2CCCC2)C1=O` (stereo not shown) reads 11.7%.
The result for `CCCS(=O)(=O)N1CCN(C(=O)c2cccc(OC)c2)CC1` reads 4%; that for `O=C(Nc1ccc2c(c1)OCO2)N1CCN(c2ccccc2Cl)CC1`, -32.3%.
Regarding `Cc1[nH]c2ccc(O)cc2c1CCN.O=C([O-])/C=C\C(=O)[O-]`, the “hERG current change (%, negative = inhibition) at 10uM” value was 11.2%.
On to `CCCc1cc(NCCN(C)C)n2c(nc3ccccc32)c1C#N`, for which the “hERG current change (%, negative = inhibition) at 10uM” value is on record as -7.73%.
Consider `COc1ccc(C2N=C(Nc3ccc(C)cc3)Nc3nc(C)cc(=O)n32)cc1` (stereo not shown), for which the “hERG current change (%, negative = inhibition) at 10uM” value is given as 1.81%.

Values taken from PMC4336329 (PLoS ONE, 2015).
